Each structure is given as a SMILES string. In all, about 16,000 compounds went through this assay and about 120 (0.75%) were called active. Roughly 4% stayed inconclusive and do not appear here. Calls come from the whole dose curve; as a rule, active = well fitted inhibition curve with a large enough effect; inconclusive = small, poorly fitted or top-dose-only effect; inactive = no such curve, though single readings can be large or run the other way. The list shows a part of the results.

The target of the experiment is Rap guanine nucleotide exchange factor 3 (Homo sapiens) (UniProt O95398). Kind of experiment: Validation qHTS for antagonist of cAMP-regulated guanine nucleotide exchange factor 3 (EPAC1).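 Note: plate controls were DMSO for no effect and ATA control for full effect; nearly all actives have a fitted effect of over 75% in size.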 The settings on record: EPAC1 Rap1B-BODIPY-GDP exchange, fluorescence; series mostly up to 150 µM; activity change, negative = inhibition: at the top concentration. In outline: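 Nucleotide exchange followed as fluorescence loss when BODIPY-GDP leaves Rap1B (480 nm excitation, 540 nm emission), read at 5 min intervals over 30 min. Reaction: 100 nM EPAC1, 250 nM RAP1B-BODIPY-GDP, 50 uM GDP; ATA and DMSO define normalization.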
Sequence of UniProt O95398 (O95398 whole entry, looked up): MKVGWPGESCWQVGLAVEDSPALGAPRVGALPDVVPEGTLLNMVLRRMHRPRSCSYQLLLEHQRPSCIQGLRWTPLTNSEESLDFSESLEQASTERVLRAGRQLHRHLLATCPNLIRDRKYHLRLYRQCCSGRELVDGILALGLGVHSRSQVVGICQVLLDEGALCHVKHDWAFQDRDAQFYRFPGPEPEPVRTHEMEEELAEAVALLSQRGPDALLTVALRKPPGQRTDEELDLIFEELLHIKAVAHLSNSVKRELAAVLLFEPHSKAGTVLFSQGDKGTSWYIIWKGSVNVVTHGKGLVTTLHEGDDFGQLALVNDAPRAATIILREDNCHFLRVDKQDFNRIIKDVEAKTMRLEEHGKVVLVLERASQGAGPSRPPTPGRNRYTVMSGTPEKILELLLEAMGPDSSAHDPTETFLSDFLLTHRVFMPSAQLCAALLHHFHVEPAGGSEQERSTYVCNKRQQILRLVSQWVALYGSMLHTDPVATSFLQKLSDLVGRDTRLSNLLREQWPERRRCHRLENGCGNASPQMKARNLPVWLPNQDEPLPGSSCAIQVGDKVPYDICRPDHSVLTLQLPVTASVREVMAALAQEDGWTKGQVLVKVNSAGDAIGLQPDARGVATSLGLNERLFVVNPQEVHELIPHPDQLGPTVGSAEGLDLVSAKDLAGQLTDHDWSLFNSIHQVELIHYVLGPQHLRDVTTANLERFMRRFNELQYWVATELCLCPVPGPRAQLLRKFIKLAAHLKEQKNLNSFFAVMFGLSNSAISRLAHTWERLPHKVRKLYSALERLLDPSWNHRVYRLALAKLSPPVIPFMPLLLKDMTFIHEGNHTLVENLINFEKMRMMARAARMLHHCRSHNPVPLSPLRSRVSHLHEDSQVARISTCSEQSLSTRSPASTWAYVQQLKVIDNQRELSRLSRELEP
Regarding `Cn1c2ccccc2c2cc(C(=O)N3CCOc4ccc(C(C)(O)CCn5cccn5)cc4C3)ccc21` (stereo not given), the “activity change, negative = inhibition” value is inactive: 13.2%.

In the case of `NCC(O)COc1cccc2ccccc12` (stereo not given), the “activity change, negative = inhibition” value was inactive: 18.8%.

On to `O=S(=O)(O)c1ccc(O)cc1`, for which the “activity change, negative = inhibition” value is inactive: 4.55%.

Turning to `Fc1ccc(Nc2ncncc2-c2ccoc2)cc1`, the “activity change, negative = inhibition” value is inactive: 12.6%.

With `Cc1ccccc1CNc1ncnc2c1ncn2C1OC(CO)C(O)C1O` (stereo not given), the “activity change, negative = inhibition” value was inactive: 12.9% [at 75.8 µM].

For the compound `CC1(C)CCCC2(C)C3C(O)CC2(C)C(O)C31` (stereo not given), the “activity change, negative = inhibition” value is inactive: 13.6%.

Take `CC(O)CO` (stereo not given): the “activity change, negative = inhibition” value is inactive: 13.5%.

With `O=c1[nH]cnc2c1nc(Cl)n2C1OC(CO)C(O)C1O` (stereo not given), the “activity change, negative = inhibition” value was inactive: 8.98%.

On to `CCC1CN(CCNC(=O)c2ccc(N3CCOCC3)cc2)Cc2cc(OC)ccc2O1` (stereo not given), for which the “activity change, negative = inhibition” value was inactive: -8.45%.

In the case of `COc1ccc(NC(=O)N2CC3(CCN(C(=O)c4cc(C(F)(F)F)cc(C(F)(F)F)c4)CC3)C2)cc1`, the “activity change, negative = inhibition” value was inactive: 19.1%.

With `O=C(C1CCCCC1)N1CC(=O)N2CCc3ccccc3C2C1` (stereo not given), the activity change, negative = inhibition result was “inactive”.

Consider `C[C@@H]1CCC(=O)N(C[C@@H](C)CC#N)CC1`, for which the “activity change, negative = inhibition” value was inactive: 2.86%.

`C=CS(=O)(=O)N(Cc1ccccc1)[C@H](CO)CC(C)C`: the “activity change, negative = inhibition” value was inactive: -13.1%.

Consider `COc1ccc(C(=O)N2CCC3(CC2)c2ccccc2[C@@H](NC(=O)c2ccccn2)[C@@H]3OC)c(O)c1`, for which the “activity change, negative = inhibition” value was inactive: 15.8%.

In the case of `CN1CCN(c2ncc3ncc(=O)n(Cc4ccc(F)cc4)c3n2)CC1`, the “activity change, negative = inhibition” value was inactive: 6.59%.

For the compound `O=C(c1cccc(F)c1)N1CCC[C@@]2(CCN(c3ccccn3)C2)C1`, the “activity change, negative = inhibition” value was inactive: 7.64%.

Turning to `Cc1cnc(-n2ncc(C(=O)NCCCc3ccncc3)c2C)nc1-c1ccc(F)cc1`, the “activity change, negative = inhibition” value was inactive: -9.07%.

On to `C(=C\c1ccccc1)/CN1CCN(C(c2ccccc2)c2ccccc2)CC1`, for which the activity change, negative = inhibition entry is “inactive”.

As for `Cn1c(=O)[nH]c(=O)c2[nH]cnc21`, the “activity change, negative = inhibition” value is inactive: -5.27%.

In the case of `Nc1nc2c(ncn2[C@@H]2O[C@H](COP(=O)(O)OP(=O)(O)OP(=O)(O)O)[C@@H](O)C2O)c(=O)[nH]1` (stereo not given in full), the “activity change, negative = inhibition” value was inactive: 2.21%.

Turning to `CCOC(=O)C1CCCN(C(=O)c2cnn(-c3nccc(-c4cc(C)sc4C)n3)c2C)C1` (stereo not given), the “activity change, negative = inhibition” value was inactive: 5.65%.

With `O=C(O)[C@H](O)c1ccccc1`, the “activity change, negative = inhibition” value was inactive: 10.3%.

With `O=C(c1ccc(F)c(F)c1)N1CCOc2ccc(CN3CCN(CCO)CC3)cc2C1`, the “activity change, negative = inhibition” value was inactive: 9.34%.

Take `COc1cc(C(=O)N(Cc2cc3ccc(C)cc3nc2N(C)C)C2CC2)cc(OC)c1OC`: the “activity change, negative = inhibition” value was inactive: 0.714%.

On to `COc1ccc2c(c1OC)C(=O)O[C@H]2C1c2c(cc3c(c2OC)OCO3)CCN1C` (stereo not given in full), for which the activity change, negative = inhibition entry was “inactive”.

Consider `NC(CCC(=O)NC(CCSC(CC(=O)O)C(=O)O)C(=O)NCC(=O)O)C(=O)O` (stereo not given), for which the “activity change, negative = inhibition” value was inactive: 16.9%.

Turning to `O=c1c(O)c(-c2ccc(O)cc2)oc2cc(O)ccc12`, the “activity change, negative = inhibition” value was inactive: -7.82%.

For the compound `CC(C)CN1CCC(=O)N(CCSc2ccccc2)CC1`, the “activity change, negative = inhibition” value was inactive: 13.2%.

Consider `CO[C@@]1(NC(=O)Cc2cccs2)C(=O)N2C(C(=O)O)=C(COC(N)=O)CSC21` (stereo not given in full), for which the “activity change, negative = inhibition” value was inactive: 17.7%.

For the compound `Cc1noc(C)c1-c1cncnc1N1CCN(C)CC1`, the “activity change, negative = inhibition” value is inactive: 20.1%.

For `C/C=C(/C)C(=O)OC1Cc2c(ccc3ccc(=O)oc23)OC1(C)C` (stereo not given), the “activity change, negative = inhibition” value is inactive: 13.7%.

Consider `CC[C@@H]1/C=C(\C)C[C@H](C)C[C@H](OC)[C@H]2O[C@@](O)(C(=O)C(=O)N3CCCC[C@H]3C(=O)O[C@H](/C(C)=C/[C@@H]3CC[C@@H](Cl)[C@H](OC)C3)[C@H](C)[C@@H](O)CC1=O)[C@H](C)C[C@@H]2OC`, for which the “activity change, negative = inhibition” value is inactive: 15.5%.

For the compound `CN(C)c1nc(CN2CCCCC2c2cccnc2)nc2ccccc12` (stereo not given), the “activity change, negative = inhibition” value was inactive: 12.8%.

As to `COc1ccc(C(=O)N2CCC[C@@]3(CCN(Cc4ccccc4)C3)C2)cc1`, the “activity change, negative = inhibition” value is inactive: 14.8%.

On to `O=C1[C@H](Cc2ccccc2)NC/C=C\C[C@H](c2ccc(Cl)cc2)N1Cc1ccc(Cl)cc1`, for which the “activity change, negative = inhibition” value was inactive: -14.2%.

On to `C[C@@](N)(Cc1ccc(O)c(O)c1)C(=O)O`, for which the “activity change, negative = inhibition” value is inactive: 23.5%.

For the compound `NC(N)=NC(N)=Nc1cccc(Cl)c1`, the activity change, negative = inhibition result is “inactive”.

With `C[C@H]1O[C@@H](O[C@H]2[C@@H](O)C[C@H](O[C@H]3[C@@H](O)C[C@H](O[C@H]4CC[C@@]5(C)[C@H](CC[C@@H]6[C@@H]5C[C@@H](O)[C@]5(C)[C@@H](C7=CC(=O)OC7)CC[C@]65O)C4)O[C@@H]3C)O[C@@H]2C)C[C@H](O)[C@@H]1O`, the activity change, negative = inhibition result is “inactive”.

As to `CN1CCN(C2=Nc3cc(F)ccc3Cc3ccccc32)CC1`, the activity change, negative = inhibition entry is “inactive”.

Consider `O=P(O)(O)CP(=O)(O)O`, for which the “activity change, negative = inhibition” value is inactive: 11.5%.

In the case of `CSc1ccccc1N1CCN(CCCCCC(=O)NC2CCCc3ccccc32)CC1` (stereo not given), the “activity change, negative = inhibition” value is inactive: -8.66% [at 75.8 µM].

Regarding `Cc1cnc(CNc2ncncc2-c2c(C)noc2C)cn1`, the “activity change, negative = inhibition” value was inactive: 2%.

On to `Clc1cccc[n+]1CCc1ccccc1`, for which the “activity change, negative = inhibition” value was inactive: 11.6%.

Consider `CC(=O)O[C@@]1(C(C)=O)CCC2C3C=C(Cl)C4=CC(=O)CC[C@]4(C)C3CC[C@]21C` (stereo not given in full), for which the “activity change, negative = inhibition” value was inactive: -2.13%.

`O=S(=O)(c1ccccc1)N1CCC2(CCCN(c3ccncc3)C2)CC1`: the “activity change, negative = inhibition” value was inactive: 6.28%.

On to `CC(=O)c1ccc(F)c(-c2cc(C)cc3c2OC(CNC(=O)c2csc(C)n2)C3)c1` (stereo not given), for which the “activity change, negative = inhibition” value is inactive: -8.71%.

In the case of `c1ccc2[nH]ccc2c1`, the “activity change, negative = inhibition” value was inactive: 3.36%.

Consider `Cc1ccc2nc(-c3ccccc3C)c(CN(CC3CCCO3)C(=O)c3cccs3)cc2c1` (stereo not given), for which the “activity change, negative = inhibition” value was inactive: -10.1%.

`O=C(N[C@@H]1CCC(=O)N(CC[C@H](Sc2ccc(Br)cc2)c2ccccc2)CC1)OCc1ccccc1`: the “activity change, negative = inhibition” value is inactive: 0.337%.

For the compound `CC(=O)Oc1cc2c(c(C)c1OC(C)=O)CC=C1[C@]3(C)CC[C@]4(C)CC[C@@](C)(C(=O)O)CC4[C@]3(C)CC[C@]12C` (stereo not given in full), the “activity change, negative = inhibition” value is inactive: 3.72%.

The record behind these values is PubChem BioAssay AID1645882 (National Center for Advancing Translational Sciences (NCATS), 2021).
